Data reported in paper PMC7819943, “Rice protein-binding microarrays: a tool to detect cis-acting elements near promoter regions in rice”.
The other results are listed elsewhere or left out.

Molecular target: T1, OsWOX13 (Oryza sativa, UniProt Q5QMM3 1-267)
T1 sequence: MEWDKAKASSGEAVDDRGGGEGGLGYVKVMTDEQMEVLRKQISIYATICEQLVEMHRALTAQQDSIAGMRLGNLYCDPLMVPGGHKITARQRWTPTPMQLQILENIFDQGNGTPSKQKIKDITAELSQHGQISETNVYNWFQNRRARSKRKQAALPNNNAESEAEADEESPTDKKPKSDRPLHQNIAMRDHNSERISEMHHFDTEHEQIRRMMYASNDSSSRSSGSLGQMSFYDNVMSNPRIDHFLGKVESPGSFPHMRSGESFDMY
Assay: protein-binding microarray (RPBM); PBS, 2% BSA, 51.3 ng/ul salmon testes DNA, 50 uM zinc acetate, 200 nM TF, 25 C, 1 h; high values mean tight binding
Details: protein: recombinant; tags: N-terminal polyhistidine and DsRed monomer fusion (pET32a); label: CyDye5-dUTP incorporated in the synthesized complementary strand; 3' TTTTT single-stranded linker to array surface; dsDNA, one strand shown
In short: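 Transcription factors were each fused at the N-terminus to a polyhistidine tag plus DsRed and expressed in E. coli BL21-CodonPlus before Ni–NTA purification. Binding to a double-stranded custom Agilent array was carried out with 200 nM protein at 25 °C for 1 h in PBS, 2% BSA, salmon testes DNA and 50 µM zinc acetate. The binding signal is per-feature fluorescence intensity, in arbitrary units, on an Axon 4000B scanner.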

**Q.** Which binding signal does the source give for “GCACTTTTAGATGATCAAATCATTTTCTGGGATATAGAGACGGAGTCACCTAGTGCAG” here?
**A.** 3190 fluorescence intensity (a.u.)

**Q.** How did the binding signal turn out when “TAATATTTAATTTATTTATTTGTACTCTTAATAATTGTCACGGAGTCACCTAGTGCAG” was run?
**A.** 9150 fluorescence intensity (a.u.)

**Q.** For “ATGGGAAGACACTTCGTAATTAGCACACTTAAATTTCGAACGGAGTCACCTAGTGCAG”, which binding signal is on record?
**A.** 4560 fluorescence intensity (a.u.)

**Q.** How did the binding signal turn out when “AATTTTAATTGCCATGCATGGCTATGTATCTCTCAATCATCGGAGTCACCTAGTGCAG” was run?
**A.** 10300 fluorescence intensity (a.u.)

**Q.** How did the binding signal turn out when “AGACACATAATTTGCATCTTGCCACACCTTCGGTACAAAACGGAGTCACCTAGTGCAG” was run?
**A.** 7200 fluorescence intensity (a.u.)

**Q.** How did the binding signal turn out when “TATAATTAGAGAATGTTTACTGTAGCATCACATAGGTTAACGGAGTCACCTAGTGCAG” was run?
**A.** 14500 fluorescence intensity (a.u.)

**Q.** “CTTAATGAACAGTACCAATTGTACCAAAGTAATCTCGATTCGGAGTCACCTAGTGCAG” was tested. Which binding signal did it give?
**A.** 5270 fluorescence intensity (a.u.)

**Q.** How did the binding signal turn out when “CCAAAATTTAATTCTAATTAGAAACCATTAAGTGTGGCGGCGGAGTCACCTAGTGCAG” was run?
**A.** 47000 fluorescence intensity (a.u.)

**Q.** How did the binding signal turn out when “TTTGACAACTAACTAACTAACCATCTCTTCTGTTTTCTCACGGAGTCACCTAGTGCAG” was run?
**A.** 5880 fluorescence intensity (a.u.)

**Q.** “CAAAATTAGAAGTTTGACTAAAATTAGAATTTCAGAGAAACGGAGTCACCTAGTGCAG” was tested. Which binding signal did it give?
**A.** 7620 fluorescence intensity (a.u.)

**Q.** How did the binding signal turn out when “CGTAGCGGTCCTCGAATCAATCAATTTCCTCCCACGGGAACGGAGTCACCTAGTGCAG” was run?
**A.** 10000 fluorescence intensity (a.u.)

**Q.** How did the binding signal turn out when “AGATTGATGACAAGGATCACTGGTACAGGTTGGGAATTGACGGAGTCACCTAGTGCAG” was run?
**A.** 4990 fluorescence intensity (a.u.)

**Q.** For “CAAAATTATGTAAACCCTAGCTGGCTGTCCGTCCTTCCCCCGGAGTCACCTAGTGCAG”, which binding signal is on record?
**A.** 9450 fluorescence intensity (a.u.)

**Q.** “CTCTAGTTGATGATGGAAATCATTGACAAGAACTATAGCACGGAGTCACCTAGTGCAG” was tested. Which binding signal did it give?
**A.** 22100 fluorescence intensity (a.u.)

**Q.** Which binding signal does the source give for “GACGAAAATTAGATTTATTGGAAAATTAAGGGACCTCAGACGGAGTCACCTAGTGCAG” here?
**A.** 14100 fluorescence intensity (a.u.)

**Q.** Which binding signal does the source give for “AATCTTTGATAGATAGTGCCGTGGAAGGATATTGTAGACACGGAGTCACCTAGTGCAG” here?
**A.** 11200 fluorescence intensity (a.u.)

**Q.** Which binding signal does the source give for “TATTACATGTCAATTTGACATTGTGTTAATAAATAATAAGCGGAGTCACCTAGTGCAG” here?
**A.** 5060 fluorescence intensity (a.u.)

**Q.** “ATTGATAATTGGAGGCACCATTGCCTGGCTATGGGCAATTCGGAGTCACCTAGTGCAG” was tested. Which binding signal did it give?
**A.** 36900 fluorescence intensity (a.u.)

**Q.** How did the binding signal turn out when “GCTTGATGGTATTAATAGAAGTCTGCATAATGTGTCTTACCGGAGTCACCTAGTGCAG” was run?
**A.** 11100 fluorescence intensity (a.u.)

**Q.** With “ATTTACTAATGATGGATTAATTATACTTAATAAATTCTTCCGGAGTCACCTAGTGCAG” as the sequence, how does the binding signal read?
**A.** 17100 fluorescence intensity (a.u.)

**Q.** Which binding signal does the source give for “GTTGTAAACAAAATTATAATGACTATTCAATTATAGGAGCCGGAGTCACCTAGTGCAG” here?
**A.** 8430 fluorescence intensity (a.u.)

**Q.** How did the binding signal turn out when “AAACTAATTAGTCCGTGATTAGCCATAAGTGCTACAGTAACGGAGTCACCTAGTGCAG” was run?
**A.** 43100 fluorescence intensity (a.u.)

**Q.** Which binding signal does the source give for “ACTTCACAAGACTGTTTGCTAATTGAATAATGCTCCTGAGCGGAGTCACCTAGTGCAG” here?
**A.** 17500 fluorescence intensity (a.u.)

**Q.** “AACATGAGTAATATCAATTATTTGGGTCCAATCCAAACTACGGAGTCACCTAGTGCAG” was tested. Which binding signal did it give?
**A.** 3540 fluorescence intensity (a.u.)

**Q.** How did the binding signal turn out when “TGATCAATTTGATCACGTTTGGTCCGGATTGCTAGTGAAACGGAGTCACCTAGTGCAG” was run?
**A.** 7280 fluorescence intensity (a.u.)

**Q.** How did the binding signal turn out when “TGTAATTACACTGTCGTGATATCAATATTACACCACAGTTCGGAGTCACCTAGTGCAG” was run?
**A.** 24600 fluorescence intensity (a.u.)

**Q.** Which binding signal does the source give for “CTGTGAACTGAATGCGATTGATGCGCACGTACCACGTACACGGAGTCACCTAGTGCAG” here?
**A.** 4830 fluorescence intensity (a.u.)

**Q.** How did the binding signal turn out when “GTAATTGTCATTCTCCCTCCACCTTCGTACTTCTCCAGTCCGGAGTCACCTAGTGCAG” was run?
**A.** 4530 fluorescence intensity (a.u.)

**Q.** “GCTATTTAATTTAGACTGGGTGGAAAGGGTAGGAGGGTTGCGGAGTCACCTAGTGCAG” was tested. Which binding signal did it give?
**A.** 20200 fluorescence intensity (a.u.)

**Q.** “GTTTAGAATCTAATTGACACGTCCACCCAAATTTAGAGACCGGAGTCACCTAGTGCAG” was tested. Which binding signal did it give?
**A.** 17000 fluorescence intensity (a.u.)

**Q.** Which binding signal does the source give for “ATCTAAATTGTTTTAGATTTGTGCACAAGAACAAAAGAGACGGAGTCACCTAGTGCAG” here?
**A.** 16800 fluorescence intensity (a.u.)

**Q.** With “GCAGCCTAGATTGACAATAGATGAATTGGAGCTAGTAGTGCGGAGTCACCTAGTGCAG” as the sequence, how does the binding signal read?
**A.** 35400 fluorescence intensity (a.u.)

**Q.** Which binding signal does the source give for “ACTAATTGGGGCTACAATAAAATCAAGTGGTAGTAAACTTCGGAGTCACCTAGTGCAG” here?
**A.** 17700 fluorescence intensity (a.u.)

**Q.** Which binding signal does the source give for “GGTAAACATATAATCAACAAAATTGAATGTACAAGTGGATCGGAGTCACCTAGTGCAG” here?
**A.** 23000 fluorescence intensity (a.u.)

**Q.** “TTGCTTTGATTATGTGATGTAGCGAATGCCCGAAAAGGATCGGAGTCACCTAGTGCAG” was tested. Which binding signal did it give?
**A.** 8490 fluorescence intensity (a.u.)

**Q.** “GGAATAGGTATAGATGATTGAAGGAGGGTTGTAATTAGTGCGGAGTCACCTAGTGCAG” was tested. Which binding signal did it give?
**A.** 27600 fluorescence intensity (a.u.)

**Q.** “CCCAAACGCCCTGAAATCAAATTGAATATTCCAATTTGCACGGAGTCACCTAGTGCAG” was tested. Which binding signal did it give?
**A.** 4630 fluorescence intensity (a.u.)

**Q.** “CAATTAATTCTTTGATCGTTTCTTTCCTCCTAACAACTGTCGGAGTCACCTAGTGCAG” was tested. Which binding signal did it give?
**A.** 3580 fluorescence intensity (a.u.)

**Q.** “GATGATGATATGATTCTTTTCCTTTTCCCTGCTGTGCATCCGGAGTCACCTAGTGCAG” was tested. Which binding signal did it give?
**A.** 9110 fluorescence intensity (a.u.)

**Q.** With “CTATCTAGATTTGTTGTACTAGATTATATCCCATCGAAGTCGGAGTCACCTAGTGCAG” as the sequence, how does the binding signal read?
**A.** 3970 fluorescence intensity (a.u.)

**Q.** Which binding signal does the source give for “TCAAATTGAAATTCGAATTCAAATATTTTATATTTTCCTCCGGAGTCACCTAGTGCAG” here?
**A.** 22400 fluorescence intensity (a.u.)

**Q.** How did the binding signal turn out when “CATACAATTAACAATAACTGAATTGAAGAGGCATATTCTACGGAGTCACCTAGTGCAG” was run?
**A.** 26700 fluorescence intensity (a.u.)
